Experimental data reported in PubChem BioAssay (NCATS).
This list was built around the results that the source calls inconclusive (neither active nor inactive); the mix of calls is not that of the screen. Potencies of inconclusive entries are left out as doubtful fits. Activity calls are given as the source filed them. Calls follow the shape of the dose curve; as a rule, active = well fitted curve in the direction sought with a large enough effect; inconclusive = small, poorly fitted or top-dose-only effect, or another doubt; inactive = no such curve, though single readings can be large; an effect the other way counts as inactive or inconclusive.

Test: qHTS of pediatric cancer cell lines to identify multiple opportunities for drug repurposing: Primary screen for U-2 OS cells (AID 1347096); also: nearly all actives have a fitted effect of over 50% in size
Conditions: U-2 OS viability, CellTiter-Glo luminescence, 48 h; series mostly up to 46 µM
Procedure, shortened: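 Cells (500-1,000/well) rested 5 h, then received compounds for 48 h; metabolically active cells were measured by CellTiter-Glo luminescence. Final concentrations spanned up to 46 µM (MIPE, 11-point) or 0.59 nM-46 µM (NPC, 8-point) in primary screens, 11-point in follow-ups.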
Potency is read from the fitted curve at half-maximal effect; tags tell the direction and shape of the fitted curve.

SMILES | Potency
COc1cc([C@@H]2c3cc4c(cc3[C@H](O)[C@H]3COC(=O)[C@H]23)OCO4)cc(OC)c1OC | inconclusive [cytotoxic, full curve]
O=c1cc(N2CCOCC2)oc2c(-c3cccc4c3sc3ccccc34)cccc12 | inconclusive [cytotoxic, partial curve]
CO[C@H]1/C=C\O[C@@]2(C)Oc3c(C)c(O)c4c(O)c(c5c(nc6cc(C)ccn65)c4c3C2=O)NC(=O)C(C)=CC=C[C@H](C)[C@H](O)[C@@H](C)[C@@H](O)[C@@H](C)[C@H](OC(C)=O)[C@H]1C | inconclusive [cytotoxic, partial curve, poor fit]
Cc1cc(C(=O)N2CCN(c3cccc(Cl)c3)CC2)n(-c2ccccc2)n1 | inconclusive [cytotoxic, partial curve, poor fit]
O=C1N(c2ccccc2)c2ccccc2C1(Cc1ccncc1)Cc1ccncc1 | inactive
CCNC(=O)Nc1ccc2ncc(Nc3ccc(C)cc3)nc2n1 | inconclusive [cytotoxic, partial curve, poor fit]
C=C1C(=O)OC2C=C(C)CCC=C(C)CCC12 (configuration not stated) | inactive
COc1c(O)cc2c(c1O)[C@@H]1O[C@H](CO)[C@@H](O)[C@H](O)[C@H]1OC2=O | inactive
CCC(=O)NC[C@H](Cc1ccc(OCCc2nc(-c3ccccc3)oc2C)cc1)NC(C)=CC(=O)c1ccc(C(F)(F)F)cc1 | inconclusive [cytotoxic, single point]
CC(S)C(=O)NCC(=O)O (configuration not stated) | inactive
Nc1ncnc2c1nc(Cl)n2[C@@H]1O[C@H](CO)[C@@H](O)[C@@H]1O | inconclusive [cytotoxic, single point]
COc1ccc(-c2nc(N3CCOCC3)c3sc(CN(C)c4ncc(C(=O)NO)cn4)cc3n2)cn1 | active: 0.0118 µM
N=C(N=C(N)N)N1CCOCC1 | inactive
O=C1NC(=O)C(=Cc2ccc3c(c2)OC(F)(F)O3)S1 | inconclusive [cytotoxic, partial curve, poor fit]

Test: qHTS of pediatric cancer cell lines to identify multiple opportunities for drug repurposing: Primary screen for Saos-2 cells (AID 1347097); also: nearly all actives have a fitted effect of over 40% in size
Conditions: Saos-2 viability, CellTiter-Glo ATP luminescence, 48 h; series mostly up to 46 µM
Procedure, shortened: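 Quantitative HTS format: each compound titrated (MIPE 11 points from 0.78 nM, NPC 8 points from 0.59 nM) onto cells plated 5 hours earlier. After 48 h at 37 degrees C, CellTiter-Glo luminescence was recorded.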

SMILES | Potency
CCCn1c(=O)c2[nH]c(-c3cnn(Cc4cccc(C(F)(F)F)c4)c3)nc2n(CC)c1=O | inconclusive [cytotoxic, full curve]
CCCC1OC2C[C@@H]3[C@H]4CCC5=CC(=O)C=C[C@]5(C)[C@H]4C(O)C[C@]3(C)[C@]2(C(=O)CO)O1 (some centres not stated) | inconclusive [cytotoxic, partial curve]
Cc1nc(Nc2n[nH]c3c2CN(C(=O)N[C@H](CN(C)C)c2ccccc2)C3(C)C)c2sccc2n1 | active: 1.66 µM
CN(C[C@@H]1COCCO1)S(=O)(=O)Nc1ccc2ccc3ncc(-c4cnn(C)c4)cc3c(=O)c2c1 | inconclusive [cytotoxic, full curve]
Cc1cn2c(-c3cn[nH]c3)cnc2c(Nc2ccc(C(=O)N3CCNCC3)cc2F)n1 | inconclusive [cytotoxic, partial curve]
CN1N=C(N)c2cn([C@@H]3O[C@H](COP(=O)(O)O)[C@@H](O)[C@@H]3O)c3ncnc1c23 | active: 2.09 µM
N#CNC(=NCCCCCCOc1ccc(Cl)cc1)Nc1ccncc1 | inconclusive [cytotoxic, full curve, poor fit]
COc1cc(Nc2nc3ccccc3nc2NS(=O)(=O)c2ccc(NC(=O)c3ccc(C)c(OC)c3)cc2)cc(OC)c1 | inconclusive [cytotoxic, partial curve]
CN(C)CC[C@H](CSc1ccccc1)Nc1ccc(S(=O)(=O)NC(=O)c2ccc(N3CCN(Cc4ccccc4-c4ccc(Cl)cc4)CC3)cc2)cc1[N+](=O)[O-] | active: 9.35 µM
COCCOC(=O)C1=C(C)NC2=C(C(=O)CC(c3ccccc3OC)C2)C1c1cccc(O)c1 (configuration not stated) | inconclusive [cytotoxic, partial curve]
Cc1cccc2c1CC[C@H](CN1CCC(c3c(Cl)cccc3Cl)CC1)C[C@@H]2O | inconclusive [cytotoxic, single point]
CCc1nc(N)nc(N)c1-c1ccc(Cl)cc1 | inconclusive [cytotoxic, single point]
COc1cc(C(C)C)c(Oc2cnc(NC(CO)CO)nc2N)cc1I | inconclusive [cytotoxic, partial curve]
